Measured values: PubChem BioAssay AID686971 (National Center for Advancing Translational Sciences (NCATS), 2013)
Screen size: about 360,000 compounds; about 7,500 (2.1%) were called active. Inconclusive means that the source gave no clear call. Such entries were picked first, then a sample of the others. The call rests on the fitted dose curve; in most records, active means well fitted cell-killing curve with a large enough effect; inconclusive means small, poorly fitted or top-dose-only effect, or effect the other way, or another doubt; inactive means no such curve, though single readings can be large or run the other way. Potencies of inconclusive entries are left out as doubtful fits.

Experiment: qHTS for induction of synthetic lethality in tumor cells producing 2HG: qHTS for the HT-1080-IDH1KD cell line;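 on activity, negative = toxicity: 0% = DMSO wells and -100% = cell-free medium wells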
Settings: HT-1080 IDH1 knockdown viability, ATP luminescence, 48 h; activity, negative = toxicity: at 46.1 µM (top of the series) unless noted
How it was run: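 Knockdown cells (IDH1KD HT-1080) received compounds 2 h after plating at 750 cells/well and were kept 48 h at 37 °C in 5% FBS RPMI. A CellTiter-Glo luminescence read gave % activity for curve fitting.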
Potency means the concentration at half of the fitted maximal effect; tags describe the fitted curve by direction and shape.

SMILES	Potency	activity, negative = toxicity
Cc1cccc(C(=O)C(O)(c2ccccc2)C2CCCCC2=O)c1 (stereo unspecified)	inconclusive [cytotoxic, single point]	–
CCCCNC(=O)C[C@@H]1C[C@@]2(C(=O)OC)CCCCC=C2N(Cc2cccc3ccccc23)C1=O	inconclusive [cytotoxic, single point]	–
CCC(C)n1c(NC(=O)c2ccccc2)c(C#N)c2nc3ccccc3nc21 (stereo unspecified)	active: 16.4 µM	–
Cc1cc(NC(=O)CCC(=O)N(CCc2ccccc2)C(C(=O)NC2CCCC2)c2ccco2)no1 (stereo unspecified)	inconclusive [cytotoxic, single point]	–
OCCOCCn1c(C2CCCN2c2nc(-c3ccc(F)cc3)cs2)nc2cc(Cl)c(Cl)cc21 (stereo unspecified)	inconclusive [cytotoxic, single point]	–
O=C(/C=C/c1cccc([N+](=O)[O-])c1)NCCSCc1ccc(Cl)cc1Cl	–	inconclusive: -32.4% [cytotoxic]
CCN1CCN(c2cc(C)c3cc(NC(=O)c4ccc5c(c4)OCO5)ccc3n2)CC1	inconclusive [cytotoxic, single point]	–
CCC(CC)c1nnc(NC(=O)COc2ccc3c(c2)OCO3)s1	inconclusive [cytotoxic, single point]	–
O=C(Oc1ccc[nH]c1=O)C1CC1	inconclusive [cytotoxic, single point]	–
Cc1ccc(-c2nnc(CSc3nnc(COc4cccc5ccccc45)n3-c3ccccc3)o2)cc1	inconclusive [cytotoxic, single point]	–
O=C(N/N=C/C=C/c1ccccc1[N+](=O)[O-])c1ccncc1	–	inactive: -12.9%
C=CCNc1ncnc2c1ncn2C1OC(CO)C(O)C1O (stereo unspecified)	active: 18.4 µM	–
COc1ccc2nc(NC(=O)C(NS(=O)(=O)c3cccc4nsnc34)C(C)C)sc2c1 (stereo unspecified)	inconclusive [cytotoxic, single point]	–
COCCNC(=O)C(OC(=O)CC1Sc2ccccc2NC1=O)c1ccncc1 (stereo unspecified)	–	inactive: 0.618%
CCCCC(=O)Nc1cccn2ncnc12	inconclusive [rising, single point]	–
O=C(CCSc1ccc(Cl)cc1)c1cccs1	inconclusive [cytotoxic, single point]	–
CCn1c2ccc(OC)cc2c2nc3ccccc3nc21	inconclusive [cytotoxic, single point]	–
CC(=O)c1cccc(NC(=O)CSc2nc(N3CCCCC3)nc(N3CCCCC3)n2)c1	–	inactive: 27.4%

SMILES	Potency	activity, negative = toxicity
Cn1nc(C(F)(F)F)c(/C=N/OC(=O)c2ccccc2)c1SCc1ccccc1Cl	inconclusive [cytotoxic, single point]	–
COC(=O)c1cc(NC(=O)CC(=O)c2cccc(N)c2)cc(C(=O)OC)c1	active: 20.6 µM	–
COc1ccc(NS(=O)(=O)c2csc(C(N)=O)c2)cc1OC	–	inactive: 13.1%
COc1ccc(-c2csc(/C(C#N)=C\c3ccc(O)c([N+](=O)[O-])c3)n2)cc1OC	inconclusive [cytotoxic, single point]	–
Cc1noc(C)c1CSCC(=O)NCCN1C(=O)S/C(=C\c2ccccc2F)C1=O	–	inactive: 0.85%
Cc1ccc2nc(-c3ccccn3)c(NC3CCCC3)n2c1	inconclusive [cytotoxic, single point]	–
Cc1nc2c(C)cccn2c1C(=O)N/N=C/c1ccccc1[N+](=O)[O-]	inconclusive [rising, partial curve]	–
O=C(COc1ccc(-c2nnco2)cc1)Nc1ccc(F)c(Cl)c1	–	inactive: -2.39%
CCC(=O)Nc1ccc2c(c1)Cc1cc(NC(=O)CC)ccc1-2	inconclusive [cytotoxic, single point]	–
Cc1ccc(-c2cc(NC(=O)CCl)n(-c3ccccc3)n2)cc1	inconclusive [cytotoxic, single point]	–
COc1ccc(OC)c(N(CC(=O)N2CCc3ccccc3C2)S(C)(=O)=O)c1	–	inconclusive: 22.8%
COc1cc(Nc2ccccc2Cl)c([N+](=O)[O-])nc1[N+](=O)[O-]	inconclusive [cytotoxic, single point]	–
CCOC(=O)C1=CNS(=O)(=O)NC1c1ccc(C)cc1 (stereo unspecified)	–	inactive: 8.84%
COc1cccc(CN2CCNC(=O)C2CC(=O)NCC2CCOCC2)c1 (stereo unspecified)	–	inactive: 12.3%
CC(C)C(=O)Nc1cccc(NC(=S)NC(=O)C(c2ccccc2)c2ccccc2)c1	inconclusive [cytotoxic, single point]	–
CC(C)(C)NC(=O)C(c1ccc(C(F)(F)F)cc1)n1c(=O)c(-c2cc3ccccc3[nH]2)nc2ccccc21 (stereo unspecified)	active: 20.6 µM	–
CCc1ccc(Nc2n[n+](-c3ccccc3)c(-c3ccc(SC)cc3)s2)cc1	inconclusive [cytotoxic, single point]	–
Cc1cc2c(NCCc3ccccc3)ncnc2s1	inconclusive [cytotoxic, full curve]	–
